In ChEMBL document CHEMBL4888484, “Replenishing the malaria drug discovery pipeline: Screening and hit evaluation of the MMV Hit Generation Library 1 (HGL1) against asexual blood stage Plasmodium falciparum ,using a nano luciferase reporter read-out” (2022):
Among all 4,800 compounds or so, about 420 (8.8%) showed an effect of 50% or more. The list shows a part of the results.

Tested on: Plasmodium falciparum
Assay: Confirmatory screen in NF54 nanoGlo assay, in single point, at 2uM, 72h
Type: functional, Erythrocyte
Conditions: timepoint 72 hour

SMILES	% Inhibition [%]
CCN1CCCCc2cc(C(=O)N[C@@H](C)COC)sc21	-5
CC(C)(C)NC1=Nc2ccccc2N[C@]12CCCN(C(=O)c1ccc3[nH]cnc3c1)C2	-13
Cc1cc(C)c(CC(=O)Nc2cnn(C)c2C2CC2)s1	-2
Cc1cncc(C(=O)N2CC(n3cnnc3C)C2)c1	-19
CCc1sc(N(C(=O)CCc2ccccc2)c2ccc(C)cc2C)nc1-c1ccc(OC)cc1	-1
NC(=O)NOCc1cccc(Cl)c1	-1
O=C(Nc1cc(N2CCCS2(=O)=O)ccc1O)c1cccc(Oc2cccc(C(F)(F)F)c2)c1	100
CN(c1ncc(S(=O)(=O)c2ccccc2)c(N)n1)C1CCCCC1	-9
Cc1cc(Br)c2c(c1)C(O)(N1CCCC(C)C1)C(=O)N2 (stereo not given)	1
Nc1ccc2c(c1)Oc1cc(N)ccc1OCCOCCOCCO2	-10
CC(C)c1cc(=O)[nH]c(-n2nc(C3CC3)cc2NC(=O)c2ccc(F)cc2)n1	93
O=C(Nc1cnc(-n2ccnc2)nc1)C(c1ccccc1)c1ccccc1	36
COc1cc2c(cc1OC)[C@@H](NC(=O)c1cnc(C3(C)OCCO3)s1)CCCC2	50
O=C(Nc1ncc(Cc2ccc(Cl)c(C(F)(F)F)c2)s1)c1ccc2nnsc2c1	5
Cn1cc(Oc2ccccc2C(=O)Nc2cccnc2O)cn1	3
Cc1cc(-c2ccco2)cc(Cl)c1N	-1
COc1ccccc1Cn1c(=O)c2sccc2n(CC(=O)NCCc2ccc(Cl)cc2)c1=O	3
CC(C)C[C@@H]1N[C@H](C(=O)NCCN(C)C)Cc2c[nH]c3cccc1c23	-8
Cc1cccc(NC(=O)Cn2c(C(F)(F)F)nc3cc4c(cc32)OCCCO4)c1C	3
O=C(NCc1ccc(O)nc1)C1(Cc2cccc(Cl)c2)CCCC1	3
CC(C)N(CCCNC(=O)c1cnn2c3c(cnc12)CCCCCC3)Cc1ccccc1	0
Cc1nc(N2CCOCC2)cc(N2CCN(C(=O)c3cccc(Br)c3)CC2)n1	-6

SMILES	% Inhibition [%]
COc1cccc(C(=O)c2c[nH]c(C(=O)NCc3cccc(C(F)(F)F)c3)c2)c1	-1
COc1c(S(=O)(=O)c2ccc(C#N)cc2)cnc2ccc(Cl)cc12	-13
CCOC(=O)c1c(CN2CCCC2)n(C)c2cc(-c3cccnc3)c(O)c(Cn3ccnc3)c12	60
NC(=O)C1CCN(CCC(=O)N2CCc3cc4ccc3[C@@H]2c2cccc(c2)OCCCNC(=O)c2cc(ccc2O)O4)CC1	96
CC(C)OC[C@@H](O)CN1CC(C2CCC2)C1	-14
CC(=O)NCCNC(=O)Nc1ccccc1N(C)C1CCCC1	-11
Cc1ccc(NC(=O)CC(=O)O)c(C)c1	-5
Cn1c(=O)c2c(c(-c3ccccc3)cn2C)n(CC(=O)Nc2cc(Cl)cc(Cl)c2)c1=O	-12
COc1ccc2cc(S(=O)(=O)n3ccc(C)n3)ccc2c1	-2
Cc1cc(=O)[nH]c(-n2nc(C3CC3)cc2NC(=O)C(C)(C)Oc2ccc(Cl)cc2)n1	85
O=C(CN1N=C(C(=O)Nc2ccccc2)CCC1=O)Nc1ccc(OC(F)(F)F)cc1	-12
COc1ccc(Oc2nccc(-c3ccc(F)cc3)c2C#N)cc1	-3
COc1cc2c(cc1CNc1nc(N)nc3c1CCNCC3)CCC2	21
CN(CCN(C)C1CC1)C(=O)c1cc2[nH]cnc2cc1F	7
CC(C)(C)C(=O)Nc1cc(Br)c(O)c(Br)c1	3
CCOC(=O)c1oc(NC(=O)OC(C)(C)C)nc1C(F)(F)F	-5
Cc1cc2ncc(-n3cncn3)c(-c3ccccc3)n2n1	-5
O=C(NC1CCN(Cc2ccco2)CC1)c1ccco1	-9
O=C(N[C@@H]1CC=C(c2ccc(F)cc2)CC1)c1nc2n(n1)CCCN2	11
COc1ccc(C2C(C(=O)O)c3ccccc3C(=O)N2C2CCCCC2)cc1 (stereo not given)	-3
CCOc1ccccc1NC(=O)C[C@H]1CCc2nnc(C3CCCC3)n2CC1	-1
COc1ccc(C2CC(c3ccccc3)N(C(C)=O)c3ncnn32)cc1 (stereo not given)	-9

SMILES	% Inhibition [%]
Cc1ccc(-c2cc(C(=O)Nc3nnc(C(C)C)s3)no2)cc1F	39
COc1ccc(C(=O)C[n+]2cc(-c3ccc(OC)cc3)n3c2CCCC3)cc1	60
O=c1[nH]c(=O)n(S(=O)(=O)c2ccccc2)cc1F	92
COc1ccc(CNC(=O)[C@H](C)n2ccc3cc(S(=O)(=O)N4CCCC4)ccc32)cc1OC	0
CC(C)N(C(=O)CCN1C(=O)CCC1=O)c1ccccc1Br	-19
N#Cc1ccc(C(=O)N[C@H]2CCCc3c2cnn3-c2ccccn2)cc1	2
CC1(C)OCc2cc(CNc3ccc4oc(=O)[nH]c4c3)ccc2O1	93
O=C(C1CC12CCCC2)N1CCCC(S(=O)(=O)N2CCc3ccccc32)C1 (stereo not given)	5
O=C(C#Cc1ccc(C(F)(F)F)cc1)NCC1(CO)CCC1	8
CC(C)C(NC(=O)c1ccccc1F)C(=O)NC1CCC(N(C)C)C1 (stereo not given)	-16
Cc1cccc(-n2c(=O)[nH]c3nc(NCCN(C)C)ncc3c2=O)c1C	-4
Cc1ccc(F)cc1-n1c(=O)c2sccc2n(CC(=O)Nc2ccc3c(c2)CCC3)c1=O	13
CCN(CC)CCNCc1sccc1C	-11
CCNC(=O)N1CC[C@H](Oc2ccc3ccccc3n2)C1	48
Cc1cc(S(=O)(=O)Nc2cn(C)c(=O)n(C)c2=O)sc1Cl	12
OCCNCc1ccc(Cl)cc1Cl	0
Cc1noc(C)c1C(=O)NC[C@H](O)Cn1ccccc1=O	3
Cc1cc(OC(=O)c2cccnc2)c(C(C)C)cc1NC1=NS(=O)(=O)c2ccccc21	-8
COc1ccc(CCNc2oc(-c3cccnc3)nc2C#N)cc1OC	31
CN1C(=O)[C@H](O)N(c2cccc3ccccc23)C1=O	3
COc1cc(NC(=O)Cn2c(=O)n(C)c(=O)c3c2c(-c2ccccc2)cn3C)cc(OC)c1OC	-5
